# According to PubChem BioAssay AID686979 (National Center for Advancing Translational Sciences (NCATS), 2013):
# The campaign covered roughly 420,000 compounds. About 50,000 (12%) were called active. The shares of active, inactive and inconclusive entries below differ from those in the screen. The call rests on the fitted dose curve; in most records, active means well fitted inhibition curve with a large enough effect; inconclusive means small, poorly fitted or top-dose-only effect; inactive means flat fitted curve, though single readings scatter. No potency is given beside an inconclusive call; the fits are too rough.
# Experiment: qHTS for Inhibitors of human tyrosyl-DNA phosphodiesterase 1 (TDP1): qHTS in cells in presence of CPT; further: nearly all actives have a fitted effect of over 55% in size
# Details: chicken DT40 Tdp1-/-;hTDP1 cells + 20 nM CPT, ATP luminescence, 48 h; activity change, negative = growth inhibition: at 46.2 µM (top of the series)
# Summary of the method: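 Cell growth measured by CellTiter-Glo luminescence after a minimum 48 h, 37 C compound exposure with 20 nM CPT in Tdp1-knockout DT40 cells stably expressing hTDP1, seeded 400/well; qHTS titration format.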
# On the % scale 0 is the no-effect control and ±100 the full control effect; potency means the concentration at half of the fitted maximal effect; tags describe the fitted curve by direction and shape.
Compound,"activity change, negative = growth inhibition",Potency
Cc1ccc(NC2CCCN(C(=O)CSc3ccccn3)C2)cc1C (stereo unspecified),inactive: -27.8%,
Nc1ccc2cc3[nH]c4cc(N)ccc4c3nc2c1,,active: 2.91 µM
Cc1ccc(S(=O)(=O)Cn2nnnc2C(CC(C)C)N2CCN(c3ccccc3)CC2)cc1 (stereo unspecified),,"inconclusive [inhibitor, single point]"
CC[n+]1c(/C=C/c2c[nH]c3ccccc23)ccc2cc(C)ccc21,,active: 1.16 µM
Cc1cc(C)c(Cn2c3ccccc3c3cnn(CC(=O)NCCN4CCOCC4)c(=O)c32)c(C)c1,,"inconclusive [inhibitor, single point]"
CC(=O)c1ccc(NC(=O)Nc2ccc3c(c2)N(C)C(=O)CS3)cc1,,"inconclusive [inhibitor, partial curve, poor fit]"
O=C(Nc1ccc2ccccc2c1)c1ccccc1O,,active: 13 µM
CC1=CCC2COC(c3ccc[n+](Cc4ccccc4)c3)C1C2 (stereo unspecified),,active: 3.66 µM
COC(=O)C1=C(C)N=C2SC(C#N)=C(N)N2C1c1ccc(OCc2ccccc2)cc1 (stereo unspecified),,"inconclusive [inhibitor, partial curve, poor fit]"
CN(Cc1nccn1C)C(=O)c1ccc(OC2CCN(CCc3ccccc3)CC2)cc1,inactive: 12%,
CCN(Cc1ccccc1)C(=O)c1cc(-c2ccc(OC)c(OC)c2)nc2ccccc12,,"inconclusive [inhibitor, single point]"
COc1cccc(CNc2nc3c(-c4cccc(C)c4)nnn3c3ccccc23)c1,inactive: -23.5%,
O=C(c1ccc(Br)cc1)c1coc2ccc(O)cc12,,"inconclusive [inhibitor, single point]"
CCOC(=O)N=Nc1c2ccccc2c2nc3no[nH]c3nc12,,active: 0.411 µM
CCN(CC)C(=O)COc1ccc(N(C)S(=O)(=O)c2ccc(NC(C)=O)cc2)cc1,,"inconclusive [inhibitor, single point]"
CCOc1ccccc1NC(=O)c1cnc(N2CCOCC2)c2ccccc12,,active: 20.6 µM
O=C(c1cc(F)ccc1F)C1CCCN(Cc2cccn2-c2ccccn2)C1 (stereo unspecified),,"inconclusive [inhibitor, single point]"
CNc1oc(-c2ccc(COc3ccc(C)cc3)o2)nc1C#N,inactive: -13.2%,
CC(C)C(=O)N1CCN(c2ccc(NC(=O)COc3ccccc3[N+](=O)[O-])cc2)CC1,,active: 14.6 µM
CC(=NNC(=O)c1ccncc1)c1ccc(O)cc1O,,"inconclusive [inhibitor, single point]"
CC(C)(CNC(=O)c1cccc(S(=O)(=O)Nc2ccc(SC(F)F)cc2)c1)N1CCOCC1,,"inconclusive [inhibitor, single point]"
